According to the supplement of paper PMC12217912:
Some of the results follow. Sequences were assembled here from the parent chain. Inactive controls read about 0.05.

B1: TEV protease; numbered along this chain (parent)
chain: MGESLFKGPRDYNPISSSICHLTNESDGHTTSLYGIGFGPFIITNKHLFRRNNGTLVVQSLHGVFKVKDTTTLQQHLVDGRDMIIIRMPKDFPPFPQKLKFREPQREERICLVTTNFQTKSMSSMVSDTSCTFPSGDGIFWKHWIQTKDGQCGSPLVSTRDGFIVGIHSASNFTNTNNYFTSVPKNFMELLTNQEAQQWVSGWRLNADSVLWGGHKVFMVKPEEPFQPVKEATQL

Variants of: B1
Assay: raw area under fraction-flipped curve 0-4 h after induction (AUC4h, not background-subtracted), DNA-recorder readout of cleavage of the substrate (dimensionless); higher = more cleavage of the substrate by the protease variant
Conditions: temperature: 34 °C; time window: 0-4 h after rhamnose induction
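Note: Bxb1 expression induced with 0.2% (w/v) L-rhamnose at OD600 near 0.5, cultures sampled hourly, flipped fraction per protease–substrate barcode pair counted by paired-end Illumina sequencing.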

| Variant | area with substrate ENLYFQI | area with substrate ENLYFQK | area with substrate ENLYFQN | area with substrate ENLYFQS | area with substrate ENLYFQP | area with substrate ENLYFQH | area with substrate ENLYFQL | area with substrate ENLYFQV | area with substrate ENLYFQM | area with substrate ENLYFQW |
| --- | --- | --- | --- | --- | --- | --- | --- | --- | --- | --- |
| I84N | 0.064 | 0.0519 | 0.0724 | 0.0606 |  |  |  |  |  |  |
| N116T | 0.0763 |  | 0.07 | 0.108 | 0.0561 |  |  |  |  |  |
| G35A |  |  |  | 0.101 |  | 0.0713 | 0.0702 | 0.065 |  |  |
| G35I |  |  |  | 0.0503 |  |  |  |  |  |  |
| R51H | 0.0524 |  |  | 0.121 |  |  | 0.0365 |  |  |  |
| R51S | 0.0509 | 0.0593 |  | 0.116 |  |  |  |  | 0.0896 | 0.055 |
| H29G | 0.0735 | 0.0647 |  | 0.107 |  |  |  |  |  |  |
| F6A |  | 0.064 | 0.0885 | 0.0836 |  |  |  |  | 0.0399 |  |
| N178M |  |  | 0.0908 | 0.154 |  |  | 0.065 |  | 0.111 |  |
| N178R |  |  |  | 0.108 |  |  |  |  |  |  |
| N178C |  |  |  | 0.0946 |  |  |  |  |  | 0.0629 |
| F92K |  |  |  | 0.105 | 0.0472 | 0.0715 | 0.0601 | 0.045 | 0.0967 |  |
| F92G | 0.0658 |  |  | 0.0667 |  |  |  |  |  |  |
| L99I | 0.0585 |  |  | 0.0904 | 0.0742 |  |  |  |  |  |
| L99H |  |  |  | 0.115 |  |  |  |  |  |  |
| K90M |  |  |  | 0.119 |  |  |  |  |  | 0.0563 |
| F38E |  |  |  | 0.0653 |  |  |  |  |  |  |
| K7W |  |  |  | 0.0994 | 0.0704 |  |  |  |  |  |
| K7S |  |  |  | 0.134 |  | 0.0742 |  | 0.0389 |  |  |
| Y179D | 0.0486 | 0.0555 | 0.0493 | 0.0574 |  |  | 0.0526 |  |  |  |
| K66Q | 0.0433 |  | 0.0723 | 0.102 | 0.0395 | 0.0573 |  |  | 0.083 |  |
| T129H |  |  |  | 0.0917 |  |  | 0.0586 |  |  |  |
| G2A | 0.0515 |  |  | 0.109 | 0.0515 | 0.126 | 0.055 |  | 0.096 |  |

| Variant | area with substrate ENLYFQI | area with substrate ENLYFQK | area with substrate ENLYFQN | area with substrate ENLYFQS | area with substrate ENLYFQP | area with substrate ENLYFQH | area with substrate ENLYFQL | area with substrate ENLYFQV | area with substrate ENLYFQM | area with substrate ENLYFQW |
| --- | --- | --- | --- | --- | --- | --- | --- | --- | --- | --- |
| G153L |  |  | 0.0394 | 0.0466 |  | 0.0393 |  | 0.0551 |  |  |
| G153F | 0.0563 |  | 0.0489 | 0.0528 | 0.0309 | 0.027 | 0.0393 |  | 0.0621 | 0.0658 |
| G153S |  |  |  | 0.0624 |  |  |  | 0.0578 | 0.0615 | 0.0584 |
| N206P |  |  | 0.0656 | 0.114 |  |  | 0.0732 |  |  | 0.0335 |
| D91M |  |  | 0.0766 | 0.0979 |  |  |  |  |  |  |
| Q227A |  |  |  | 0.104 |  |  |  |  |  |  |
| Q74I | 0.0435 |  | 0.0766 | 0.0736 | 0.0506 |  | 0.0599 |  | 0.0684 |  |
| P9N |  |  | 0.0746 | 0.114 | 0.0443 |  |  |  |  |  |
| R87D | 0.048 |  | 0.0715 | 0.0807 |  |  | 0.0598 |  |  |  |
| P93K |  |  |  | 0.112 |  |  | 0.05 |  |  |  |
| F65V |  |  |  | 0.0895 |  |  |  |  |  |  |
| I145N | 0.0711 |  |  | 0.0958 | 0.0755 | 0.0929 |  | 0.0819 | 0.118 |  |
| N186R |  |  |  | 0.107 |  |  |  |  |  |  |
| E223A |  |  |  | 0.0949 |  |  |  |  |  |  |
| E223D |  |  | 0.0881 | 0.107 |  |  |  | 0.0657 |  |  |
| L5T |  | 0.0919 |  | 0.117 | 0.03 |  | 0.0325 |  |  |  |
| A170E |  | 0.0644 | 0.0549 | 0.0618 |  | 0.0667 |  |  | 0.0511 | 0.0492 |
| A170F | 0.0535 |  |  | 0.0565 |  |  | 0.0398 |  |  |  |
| G138T |  |  |  | 0.0993 |  |  |  |  |  |  |
| G138L |  | 0.012 | 0.0507 | 0.0977 |  | 0.0749 | 0.052 |  |  | 0.0709 |
| G138A |  |  |  | 0.0919 |  |  | 0.0585 |  |  |  |
| G138P | 0.0506 |  | 0.0684 | 0.0888 |  |  |  |  |  |  |
| G138Y |  | 0.0643 |  | 0.0975 | 0.0718 |  | 0.0522 | 0.0521 |  | 0.0541 |

Same assay, conditions: temperature: 34 °C; time window: 0-4 h after rhamnose induction

| Variant | area with substrate ENLYFQY | area with substrate ENLYFQR | area with substrate ENLYFQT | area with substrate ENLYFQQ |
| --- | --- | --- | --- | --- |
| R51S | 0.0864 |  |  |  |
| H29G | 0.111 | 0.0689 |  |  |
| F6A |  |  | 0.0532 |  |
| N178R |  | 0.0692 | 0.0601 |  |
| F92K |  | 0.0335 |  |  |
| L99I |  | 0.0548 |  |  |
| L99H |  |  |  | 0.0716 |
| K90M | 0.0877 |  |  |  |
| Y179D | 0.0617 |  | 0.0676 | 0.0583 |
| G2A | 0.103 | 0.0625 |  |  |
| G153L | 0.048 |  |  | 0.0169 |
| G153F |  |  | 0.0598 |  |
| G153S |  |  |  | 0.0451 |
| N206P |  |  | 0.114 |  |
| D91M |  |  | 0.0744 |  |
| Q74I |  | 0.0611 | 0.0742 |  |
| P9N | 0.0879 |  | 0.0689 | 0.08 |
| R87D |  |  | 0.0693 |  |
| P93K |  | 0.0666 |  |  |
| F65V |  | 0.0609 |  |  |
| I145N |  | 0.0537 | 0.0653 |  |
| E223D |  |  | 0.078 |  |
| L5T | 0.077 | 0.057 |  |  |
| A170E |  | 0.0465 | 0.06 |  |
| G138T |  | 0.0545 | 0.0638 |  |
| G138A |  |  | 0.0553 |  |
| G138Y |  |  |  | 0.0602 |
